# Hit rate of the full screen: of about 340,000 compounds, about 12,000 (3.5%) were called active. The shares of active, inactive and inconclusive entries below differ from those in the screen. Calls follow the shape of the dose curve; as a rule, active = well fitted inhibition curve with a large enough effect; inconclusive = small, poorly fitted or top-dose-only effect, or another doubt; inactive = no such curve, though single readings can be large or run the other way. Potencies of inconclusive entries are left out as doubtful fits.
# Test: qHTS Assay for Inhibitors of Hepatitis C Virus (HCV)
# Conditions: Huh7.5.1 HCVcc-Cre (HCVcc is cell-culture hepatitis C virus) infection, luciferase reporter, 44 h; activity change, negative = inhibition: at 41.8 µM (top of the series) unless noted
# Method in brief: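 Infectious HCVcc-Cre (~0.5 moi) was added to cells just after compound, with cells seeded 4 h earlier at 1,000 per well. Luciferase activity after 44 h culture reported infection; substrate was incubated 15 min at room temperature before reading.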
# % is scaled to controls: 0 for no effect and ±100 for the full control effect; potency is read from the fitted curve at half-maximal effect; tags tell the direction and shape of the fitted curve.
SMILES,Potency,"activity change, negative = inhibition"
Cn1c2ccccc2c(=O)c2cc(C#CC3=CCCCC3)ccc21,"inconclusive [inhibitor, single point]",–
Cc1ccc(C)c(N/C(N)=N/c2nc(C)cc(C)n2)c1,"inconclusive [inhibitor, single point]",–
O=C(NCc1cccs1)C1CCN(S(=O)(=O)c2ccc(Cl)cc2)CC1,–,inactive: -19.5%
CCOC(=O)C1CCN(c2c([N+](=O)[O-])c(C(Cl)Cl)nn2-c2ccccc2)CC1,–,inactive: -25.1%
COc1cc(-c2cc(C(=O)Nc3ccc(S(N)(=O)=O)cc3)c3ccccc3n2)cc(OC)c1OC,"inconclusive [inhibitor, partial curve]",–
Cc1ccc2nc(Nc3nc(CSc4nc5ccccc5s4)cc(=O)[nH]3)nc(C)c2c1,"inconclusive [inhibitor, partial curve]",–
CC(=O)N1c2ccc(S(=O)(=O)NCC3CCC(C(=O)NC4CCC(C)CC4)CC3)cc2CC1C (centres undefined),"inconclusive [inhibitor, single point]",–
CCOc1cc(C=O)ccc1OCCn1c([N+](=O)[O-])cnc1C,–,inactive: 11.6%
COC(=O)CC1=NN(c2ccc(OC)cc2)C(=O)/C1=C\c1ccc(Cl)cc1,"inconclusive [inhibitor, partial curve]",–
Cc1cc(NC(=O)C(C)SCC(=O)OCC(=O)N(C)c2ccccc2)no1 (centres undefined),–,inactive: -0.871%
CC(C)CN(C#N)c1nc(N2CCOCC2)nc(N2CCOCC2)n1,"inconclusive [inhibitor, partial curve]",–
O=C(c1ccc(=O)[nH]c1)N(Cc1ccco1)C1(C(=O)NC2CCCCC2)CCCCC1,"inconclusive [inhibitor, partial curve]",–
CCCCn1c(N)c(N(CCOC)C(=O)C2CCN(S(=O)(=O)c3ccc(C)cc3C)CC2)c(=O)[nH]c1=O,–,inactive: -7.82%
CCCC(=O)Nc1cccc(-c2nc3cc(C)c(C)cc3o2)c1,"inconclusive [inhibitor, partial curve]",–
Cc1ccc(NC(=O)CCCCCCCCCCC2COCCO2)c(C)c1 (centres undefined),"inconclusive [inhibitor, partial curve, poor fit]",–
Cc1cccc(CSc2nnc(-c3ccco3)o2)c1,–,inactive: -0.329%
CCN(CC)S(=O)(=O)c1ccc(N2CCOCC2)c(NC(=O)C(=O)c2c(-c3ccccc3)cc3ccccn23)c1,active: 14.1 µM,–
Cc1ccc(OCCN2C(=O)C(=O)c3cc(C)ccc32)cc1,"inconclusive [inhibitor, single point]",–
CCCCn1c(N)c(N(CCOC)C(=O)c2ccc(Br)s2)c(=O)[nH]c1=O,–,inactive: -2.79% [at 8.37 µM]
NS(=O)(=O)c1ccc(CNC(=O)c2ccc(S(=O)(=O)C(F)F)cc2)cc1,"inconclusive [inhibitor, full curve, poor fit]",–
CCNc1nc(NCC)nc(OCCOC(=O)c2ccccc2)n1,"inconclusive [inhibitor, partial curve, poor fit]",–
O=C(O)CCn1cc(C2CC(c3ccccc3)=NN2c2ccccc2)c(-c2ccccc2)n1 (centres undefined),–,inactive: 21%

SMILES,Potency,"activity change, negative = inhibition"
COCC(C)n1c(SCC(=O)Nc2ccc3c(c2)OCCO3)nc2ccccc2c1=O (centres undefined),–,inactive: 24.7%
CCCNCc1cc(OC)c(OCC(=O)NCCc2ccccc2)cc1Br,"inconclusive [inhibitor, full curve, poor fit]",–
CCc1nc(C)cn1S(=O)(=O)c1ccc([N+](=O)[O-])cc1,"inconclusive [inhibitor, single point]",–
CCN(CC)S(=O)(=O)c1ccc(NC2c3ccccc3C(=O)N2c2ccc(C)cn2)cc1 (centres undefined),active: 14.1 µM,–
COCC(C)N=C1NN=C(c2c[nH]c3ccccc23)CS1 (centres undefined),–,inactive: -6.96%
O=C(c1cccs1)N1CCCC1,–,inactive: 14.9%
CCCN(CCC)C1Cc2cc(OC)c(OC)cc2C1,"inconclusive [inhibitor, single point]",–
O=C(CN(c1cccc(Cl)c1)S(=O)(=O)c1ccc(Cl)cc1)NCc1ccccn1,"inconclusive [inhibitor, single point]",–
COc1ccc(-c2ccc(SCC(=O)N3c4ccccc4CC3C)nn2)cc1OC (centres undefined),"inconclusive [inhibitor, partial curve]",–
CCOc1cc(-c2cn(S(=O)(=O)c3cccc4nsnc34)nc2N)cc(OCC)c1OCC,"inconclusive [inhibitor, single point]",–
C/C(=N\NC(=O)c1cc(-c2cccnc2)nc2ccccc12)c1ccccc1O,active: 3.98 µM,–
C=CCc1c(C)c(C#N)c2nc3ccccc3n2c1NCCN(C)C,"inconclusive [inhibitor, partial curve]",–
O=C1NCC(Nc2ccc(Cl)cc2)C(=O)N1 (centres undefined),–,inactive: 6.96%
COCC(=O)Nc1nc2n(n1)C(c1ccc(Cl)cc1)CC(c1ccc(OC)cc1)N2 (centres undefined),"inconclusive [inhibitor, single point]",–
CC(C)(C)C(=O)N1CCN(c2c(Cl)cccc2[N+](=O)[O-])CC1,"inconclusive [inhibitor, partial curve]",–
CC1=CC(c2ccccc2)n2nc(N3C(=O)CCC3=O)nc2N1 (centres undefined),"inconclusive [inhibitor, full curve, poor fit]",–
COCCN=c1scc(-c2cc(OC)ccc2OC)n1/N=C/c1c[nH]c2ccccc12,"inconclusive [inhibitor, single point]",–
CCOc1ccc(NC(=O)CN(c2cc(C)cc(C)c2)S(=O)(=O)c2c(C)noc2C)cc1,"inconclusive [inhibitor, partial curve]",–
COc1cccc(NC(=O)c2ccccc2-c2nc(-c3ccc(F)cc3)no2)c1,"inconclusive [inhibitor, single point]",–
CCOc1cc(C=NN2CCCCCC2)ccc1O,"inconclusive [inhibitor, single point]",–
CCNC(=O)N(C)c1nncnc1C(=O)NC,–,inactive: 19.9%
Cc1ccc2nc(-c3ccc(SCC(=O)N4CCc5ccccc54)nc3)[nH]c2c1,"inconclusive [inhibitor, single point]",–

# Source: PubChem BioAssay AID651820 (National Center for Advancing Translational Sciences (NCATS), 2012)
